{"source": "PubChem BioAssay AID504333", "about": "(National Center for Advancing Translational Sciences (NCATS), 2011)", "note": "The campaign covered roughly 360,000 compounds. About 16,000 (4.4%) were called active. The inconclusive results got no clear call from the source; some entries with a clear call stand among them for comparison. Calls come from the whole dose curve; as a rule, active = well fitted inhibition curve with a large enough effect; inconclusive = small, poorly fitted or top-dose-only effect; inactive = no such curve, though single readings can be large or run the other way. Where the call is inconclusive, the potency comes from a doubtful curve fit. *1 amine or outer side, *2 acyl side, *3 side chain or, on linkers, in order; H or OH if unused. Where a SMILES comes first, the peptide text is derived from it. Bridges are numbered along the chain shown (N, C = ends). [ ]: non-standard residue; d: D form. ξ: configuration not given here. hSer(Ph(2-I,4-NO2,6-CO)) = O=C([C@H](CCOc1c(I)cc([N+](=O)[O-])cc1C(=O)[*:3])N[*:1])[*:2]; ξD = NC(CC(=O)O)C(=O)O"}
{"molecular_target": "Bromodomain adjacent to zinc finger domain protein 2B (Homo sapiens) (UniProt Q9UIF8)", "sequence (Q9UIF8 whole entry, looked up, the tested form may be a part)": "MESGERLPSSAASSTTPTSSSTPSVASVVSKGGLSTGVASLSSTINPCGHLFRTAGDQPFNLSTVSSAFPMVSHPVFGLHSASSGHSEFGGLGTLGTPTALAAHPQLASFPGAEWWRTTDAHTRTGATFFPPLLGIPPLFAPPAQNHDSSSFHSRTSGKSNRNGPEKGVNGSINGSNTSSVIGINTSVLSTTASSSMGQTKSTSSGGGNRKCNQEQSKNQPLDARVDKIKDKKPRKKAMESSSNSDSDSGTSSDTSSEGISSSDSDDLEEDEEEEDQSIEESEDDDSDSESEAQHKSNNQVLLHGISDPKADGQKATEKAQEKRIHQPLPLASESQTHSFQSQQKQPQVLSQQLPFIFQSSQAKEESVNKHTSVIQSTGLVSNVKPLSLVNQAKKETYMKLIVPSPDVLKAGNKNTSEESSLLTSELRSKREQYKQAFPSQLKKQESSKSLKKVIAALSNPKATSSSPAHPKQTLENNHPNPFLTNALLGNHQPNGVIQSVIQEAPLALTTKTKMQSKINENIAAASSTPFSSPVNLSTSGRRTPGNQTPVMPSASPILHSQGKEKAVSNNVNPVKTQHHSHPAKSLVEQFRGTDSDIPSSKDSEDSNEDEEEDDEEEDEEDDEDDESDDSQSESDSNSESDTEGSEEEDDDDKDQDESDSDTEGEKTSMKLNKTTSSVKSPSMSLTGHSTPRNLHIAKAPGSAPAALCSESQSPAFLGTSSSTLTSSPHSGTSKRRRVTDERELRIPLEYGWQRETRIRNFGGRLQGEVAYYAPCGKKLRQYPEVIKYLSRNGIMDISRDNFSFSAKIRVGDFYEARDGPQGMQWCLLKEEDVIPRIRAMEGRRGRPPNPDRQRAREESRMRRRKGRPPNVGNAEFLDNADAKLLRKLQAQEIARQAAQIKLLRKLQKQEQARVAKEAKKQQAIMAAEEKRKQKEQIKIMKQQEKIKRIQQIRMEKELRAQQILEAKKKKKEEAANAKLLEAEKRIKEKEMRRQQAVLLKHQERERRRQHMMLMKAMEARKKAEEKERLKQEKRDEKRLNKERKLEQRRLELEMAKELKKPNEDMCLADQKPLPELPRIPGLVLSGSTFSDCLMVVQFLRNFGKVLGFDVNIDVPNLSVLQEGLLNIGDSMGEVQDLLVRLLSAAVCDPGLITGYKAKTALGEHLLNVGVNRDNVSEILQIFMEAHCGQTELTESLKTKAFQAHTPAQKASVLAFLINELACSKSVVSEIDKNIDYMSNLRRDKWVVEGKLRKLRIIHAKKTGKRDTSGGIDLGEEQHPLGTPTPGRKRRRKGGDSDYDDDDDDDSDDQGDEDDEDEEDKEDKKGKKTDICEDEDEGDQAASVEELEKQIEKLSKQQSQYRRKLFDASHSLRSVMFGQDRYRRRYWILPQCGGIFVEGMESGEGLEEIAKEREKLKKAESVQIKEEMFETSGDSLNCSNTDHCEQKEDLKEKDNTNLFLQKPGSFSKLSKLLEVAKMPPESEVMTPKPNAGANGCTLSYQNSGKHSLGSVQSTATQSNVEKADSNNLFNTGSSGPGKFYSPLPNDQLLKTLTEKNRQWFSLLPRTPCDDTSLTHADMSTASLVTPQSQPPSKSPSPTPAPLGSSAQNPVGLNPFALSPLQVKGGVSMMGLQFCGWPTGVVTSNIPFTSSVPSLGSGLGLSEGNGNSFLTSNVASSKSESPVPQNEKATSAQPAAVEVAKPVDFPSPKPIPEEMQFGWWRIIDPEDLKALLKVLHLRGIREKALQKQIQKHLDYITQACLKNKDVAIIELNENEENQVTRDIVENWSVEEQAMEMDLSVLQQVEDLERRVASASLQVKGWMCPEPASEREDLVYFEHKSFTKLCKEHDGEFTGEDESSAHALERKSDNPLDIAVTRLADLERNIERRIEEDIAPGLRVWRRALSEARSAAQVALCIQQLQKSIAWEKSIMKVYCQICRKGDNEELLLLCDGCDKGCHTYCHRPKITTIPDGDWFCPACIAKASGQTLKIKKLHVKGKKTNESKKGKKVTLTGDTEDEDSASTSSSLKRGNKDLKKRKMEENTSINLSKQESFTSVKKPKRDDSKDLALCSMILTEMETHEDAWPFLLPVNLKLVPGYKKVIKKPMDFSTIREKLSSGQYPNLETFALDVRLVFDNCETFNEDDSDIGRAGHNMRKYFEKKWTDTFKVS", "assay": "qHTS Assay for Inhibitors of BAZ2B; note: nearly all actives have a fitted effect of over 60% in size; note: potency is the fitted concentration of half-maximal effect; tags give direction and shape of the fitted curve; for activity change, negative = inhibition: % is set by controls: 0 for no effect and ±100 for the full control effect", "conditions": "AlphaScreen BAZ2B-H3K14Ac peptide displacement; activity change, negative = inhibition: at 114 µM (top of the series)", "how_it_was_run": "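BAZ2B (50 nM) with biotin-H3(5-23)K14Ac peptide (50 nM) in PBS pH 7.4, 0.01% Tween-20, preformed 30 min, then compound 30 min at room temperature; top concentration 110uM. AlphaScreen streptavidin donor/nickel chelate acceptor beads (10 ug/mL final), 20 min dark, signal read.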"}
{"smiles": "Cc1cccc(S(=O)(=O)c2cn(Cc3ccccc3)c3cc(N4CCCCC4C)c(F)cc3c2=O)c1", "note": "(stereo not drawn)", "activity change, negative = inhibition": "inactive: -1.18%"}
{"smiles": "FC(F)Oc1ccc(-c2csc(Cc3nnc4n3CCCCC4)n2)cc1", "Potency": "inconclusive: 89.1 µM [inhibitor, single point]"}
{"smiles": "O=C(Nc1nc(-c2ccccn2)cs1)c1cc(S(=O)(=O)N2CCOCC2)ccc1F", "Potency": "active: 22.4 µM"}
{"smiles": "O=C(COc1ccc(/C=N/NS(=O)(=O)c2ccccc2)cc1)Nc1ccccc1", "Potency": "inconclusive: 89.1 µM [inhibitor, single point]"}
{"smiles": "CC1CCCC(NC(=O)c2ccc(F)c(S(=O)(=O)N3CCOCC3)c2)C1C", "note": "(stereo not drawn)", "activity change, negative = inhibition": "inactive: -0.0373%"}
{"smiles": "C=CCc1ccccc1OCC(O)CN1CCN(CCN2C(=O)c3cccc4cccc(c34)C2=O)CC1", "note": "(stereo not drawn)", "Potency": "inconclusive: 70.8 µM [inhibitor, single point]"}
{"smiles": "Cc1ccc(C2C3=C(Nc4[nH]n(-c5ccccc5)c(=O)c42)c2ccccc2C3=O)cc1", "note": "(stereo not drawn)", "Potency": "active: 35.5 µM"}
{"smiles": "CCc1ccc(-c2nn(CC(=O)NC3CCCCC3)c3c2cnc2ccc(OC)cc23)cc1", "activity change, negative = inhibition": "inactive: -16.3%"}
{"smiles": "Cc1ccc(C(=O)Nc2ccccc2C(=O)NC(Cc2ccccc2)C(=O)O)cc1", "note": "(stereo not drawn)", "Potency": "inconclusive: 79.4 µM [inhibitor, single point]"}
{"smiles": "CCOC(=O)c1nnc2c(Br)c(-c3ccccc3)nn2c1C", "activity change, negative = inhibition": "inactive: -32.3%"}
{"smiles": "Cc1ccsc1/C=N/Nc1nc2ccccc2s1", "Potency": "inconclusive: 89.1 µM [inhibitor, single point]"}
{"smiles": "CCC(=C/c1sc2ccc3ccccc3c2[n+]1C)/C=C1\\Sc2ccc3ccccc3c2N1C", "Potency": "active: 50.1 µM"}
{"smiles": "O=C(OCC(=O)c1ccc[nH]1)c1ccc(Cl)nc1", "Potency": "inconclusive: 89.1 µM [inhibitor, single point]"}
{"smiles": "CCOc1ccc(/C=C/c2[nH]c(=O)[nH]c(=O)c2[N+](=O)[O-])cc1", "activity change, negative = inhibition": "inactive: -32.2%"}
{"smiles": "O=C(CSc1nnc(COc2ccccc2F)n1-c1ccccc1)NCc1ccco1", "Potency": "inconclusive: 70.8 µM [inhibitor, single point]"}
{"smiles": "C[N+]12CCCCC1C(COC(=O)c1ccc3c(c1)OCO3)CCC2", "note": "(stereo not drawn)", "Potency": "inconclusive: 89.1 µM [inhibitor, single point]"}
{"smiles": "C[C@@H]1NC(=O)c2cc([N+](=O)[O-])cc(I)c2OCC[C@@H](C(=O)NC(CC(=O)O)C(N)=O)NC(=O)[C@H](CC(N)=O)NC1=O", "note": "(stereo partly drawn) (AN[hSer(Ph(2-I,4-NO2,6-CO))][ξD]-NH2; lactam N-3)", "Potency": "inconclusive: 79.4 µM [inhibitor, partial curve]"}
{"smiles": "COc1ccc(C(=O)Nc2ccc(S(=O)(=O)N3CCCCC3C)cc2)c(OC)c1OC", "note": "(stereo not drawn)", "activity change, negative = inhibition": "inactive: 10.1%"}
{"smiles": "COc1ccccc1N(C(=O)c1csnn1)C(C(=O)NC1CCCC1)c1ccccc1", "note": "(stereo not drawn)", "activity change, negative = inhibition": "inactive: -7.49%"}
{"smiles": "CC(C)NC(=O)c1ccc(N(Cc2ccc(Cl)cc2)S(C)(=O)=O)cc1", "activity change, negative = inhibition": "inactive: -4.96%"}
{"smiles": "COc1cc([N+](=O)[O-])ccc1NC(=O)CCCOc1ccccc1", "Potency": "inconclusive: 79.4 µM [inhibitor, single point]"}
{"smiles": "CN(C)c1ccc(CN(C(=O)COc2ccccc2)C2CCS(=O)(=O)C2)cc1", "note": "(stereo not drawn)", "Potency": "inconclusive: 56.2 µM [inhibitor, partial curve]"}
{"smiles": "CN(C)c1ccc([C@@H]2[C@@H]([N+](=O)[O-])[C@H]3C=Cc4ccccc4N3[C@H]2C(=O)c2ccc(Cl)cc2)cc1", "Potency": "active: 31.6 µM"}
{"smiles": "COCCCNC(=O)CCc1c(C)nc2cc(-c3ccc(Cl)cc3)nn2c1C", "activity change, negative = inhibition": "inactive: -9.97%"}
{"smiles": "COc1ccc(CNC(=O)c2ccc(NC(=O)CC3SC(N4CCCC4)=NC3=O)cc2)cc1", "note": "(stereo not drawn)", "Potency": "inconclusive: 89.1 µM [inhibitor, single point]"}
{"smiles": "CCC(=O)NC(NCC1CCCO1)C(Cl)(Cl)Cl", "note": "(stereo not drawn)", "Potency": "inconclusive: 89.1 µM [inhibitor, single point]"}
{"smiles": "CCOC(=O)/C(C)=C1\\NC(C)(C)Cc2ccccc21", "Potency": "active: 17.8 µM"}
{"smiles": "O=C(O)C1OC(C(=O)O)C2C1C(F)(F)C2(F)F", "note": "(stereo not drawn)", "Potency": "inconclusive: 89.1 µM [inhibitor, single point]"}
{"smiles": "Cc1ccc2nc(SCC(=O)Nc3cccc(S(N)(=O)=O)c3)[nH]c2c1", "Potency": "inconclusive: 89.1 µM [inhibitor, single point]"}
{"smiles": "O=C1c2cc(O)c(O)cc2S(=O)(=O)C1c1ccccc1", "note": "(stereo not drawn)", "Potency": "inconclusive: 44.7 µM [inhibitor, partial curve]"}
{"smiles": "CC1CCN(CCCn2c(=S)[nH]c3c(sc4ccc([N+](=O)[O-])cc43)c2=O)CC1", "activity change, negative = inhibition": "inactive: -16.8%"}
{"smiles": "Cc1ccc(CNc2ccc(S(=O)(=O)N3CCOCC3)cc2[N+](=O)[O-])cc1", "Potency": "inconclusive: 25.1 µM [inhibitor, full curve, poor fit]"}
{"smiles": "CCCCOCc1cc(CN2CCN(c3cccc(Cl)c3)CC2)c(O)c2ncccc12", "Potency": "active: 5.62 µM"}
{"smiles": "CCOC(=O)C1=C(O)/C(=C/c2ccc(OCC(=O)O)c(OCC)c2)SC1=Nc1ccccc1", "Potency": "inconclusive: 50.1 µM [inhibitor, partial curve]"}
{"smiles": "O=S1(=O)c2ccccc2N=NN1Cc1cc(Cl)cc(Cl)c1", "Potency": "inconclusive: 79.4 µM [inhibitor, single point]"}
{"smiles": "COc1ccc(C(=O)C(C)OC(=O)CCN2C(=O)C3CC=CCC3C2=O)cc1", "note": "(stereo not drawn)", "activity change, negative = inhibition": "inactive: 17.5%"}
{"smiles": "CCn1c(=O)n(CC)c2cc(N3CCCCC3)c(NC(=O)Nc3cc(Cl)ccc3OC)cc21", "Potency": "inconclusive: 3.98 µM [inhibitor, full curve, poor fit]"}
{"smiles": "Cc1ccc(NCC(=O)N/N=C/c2cccc(Oc3ccccc3)c2)cc1", "Potency": "inconclusive: 22.4 µM [inhibitor, partial curve]"}
{"smiles": "COc1ccccc1N1CCN(C/C=C/c2ccc(N(C)C)cc2)CC1", "Potency": "active: 39.8 µM"}
{"smiles": "COc1ccc(NC(=O)CN(C)C(=O)c2ccc(N3CCCCCC3)c([N+](=O)[O-])c2)cc1", "activity change, negative = inhibition": "inactive: -8.69%"}
{"smiles": "Cc1ccc(NC(=S)N(CCCN2CCCC2)Cc2cccn2Cc2ccc(Cl)cc2)cc1Cl", "Potency": "inconclusive: 44.7 µM [inhibitor, partial curve]"}
{"smiles": "CCCCn1c(N)c(N(Cc2ccccc2OC)C(=O)c2sccc2C)c(=O)[nH]c1=O", "activity change, negative = inhibition": "inactive: 36.3%"}
{"smiles": "O=C(Nn1cnnc1)c1ccc(F)c(S(=O)(=O)N2CCCCC2)c1", "Potency": "inconclusive: 89.1 µM [inhibitor, single point]"}
